# The campaign covered roughly 310,000 compounds. About 2,200 (0.71%) showed an effect of 50% or more. Effects have a minus sign here. Some of the results follow.
# Target: human ether-à-go-go-related gene (hERG) potassium channel (human, UniProt Q12809)
# Assay: primary screen, population patch clamp on CHO cells stably expressing hERG
# Chain of human ether-à-go-go-related gene (hERG) potassium channel (Q12809 whole entry, looked up): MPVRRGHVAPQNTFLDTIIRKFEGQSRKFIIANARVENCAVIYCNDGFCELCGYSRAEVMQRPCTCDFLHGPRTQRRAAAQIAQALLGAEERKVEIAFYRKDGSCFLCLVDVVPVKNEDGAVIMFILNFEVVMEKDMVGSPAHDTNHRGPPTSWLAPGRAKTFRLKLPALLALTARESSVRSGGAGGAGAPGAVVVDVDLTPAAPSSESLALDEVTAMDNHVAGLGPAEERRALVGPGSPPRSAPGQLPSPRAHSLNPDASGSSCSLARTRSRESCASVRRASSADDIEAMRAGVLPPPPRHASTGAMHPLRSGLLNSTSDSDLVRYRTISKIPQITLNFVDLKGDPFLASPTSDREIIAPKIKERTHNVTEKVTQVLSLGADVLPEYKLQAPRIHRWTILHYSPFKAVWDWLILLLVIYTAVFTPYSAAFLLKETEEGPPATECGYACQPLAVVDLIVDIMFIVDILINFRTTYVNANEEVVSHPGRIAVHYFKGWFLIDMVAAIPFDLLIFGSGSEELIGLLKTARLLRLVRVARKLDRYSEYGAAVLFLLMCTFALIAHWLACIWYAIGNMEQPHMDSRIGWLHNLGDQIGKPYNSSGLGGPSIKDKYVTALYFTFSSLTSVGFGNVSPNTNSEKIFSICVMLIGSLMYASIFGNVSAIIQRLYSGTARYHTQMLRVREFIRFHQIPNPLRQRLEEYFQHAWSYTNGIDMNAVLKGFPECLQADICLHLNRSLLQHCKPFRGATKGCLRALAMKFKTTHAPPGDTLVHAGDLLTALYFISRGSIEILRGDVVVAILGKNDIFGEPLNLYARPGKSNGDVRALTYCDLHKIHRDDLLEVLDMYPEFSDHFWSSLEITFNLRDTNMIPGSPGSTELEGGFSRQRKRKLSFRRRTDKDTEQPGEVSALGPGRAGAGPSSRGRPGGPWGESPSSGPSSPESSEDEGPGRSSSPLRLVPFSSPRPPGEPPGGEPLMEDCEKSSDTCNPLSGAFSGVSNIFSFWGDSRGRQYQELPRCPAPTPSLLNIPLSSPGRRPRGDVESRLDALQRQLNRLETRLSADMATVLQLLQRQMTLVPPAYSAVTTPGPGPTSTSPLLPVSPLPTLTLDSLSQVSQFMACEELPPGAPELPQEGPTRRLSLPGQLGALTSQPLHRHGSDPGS
row,SMILES,"hERG current change (%, negative = inhibition) at 1uM"
1,CCCCNC(=O)c1cc2cc(OC)ccc2[nH]1,12.5%
2,C/C(N)=C(/C#N)C(=O)COC(=O)CNS(=O)(=O)c1ccc(C)cc1,21.3%
3,COc1cc(CC(=O)Oc2ccc3c(c2)OCO3)cc(OC)c1OC,7.82%
4,Cc1cc2cc3c(N)[nH]nc3nc2cc1C,7.47%
5,CCCCc1ccc(/C(C)=N/Nc2cc(N3CCOCC3)nc(C)n2)cc1,9.45%
6,CN(c1cccc(Cl)c1)S(=O)(=O)c1cccc(C(=O)NN2CCOCC2)c1,3.07%
7,CCCC1NC(=S)NC(C)=C1C(C)=O (stereo not drawn),10.6%
8,CCCCC[n+]1ccn(-c2nc3ccccc3nc2[N-]S(=O)(=O)c2ccccc2)c1,6.87%
9,CN1C(=O)c2ccc(NC(=O)c3ccc(N4CCCCC4)c([N+](=O)[O-])c3)cc2C1=O,6.44%
10,CSc1cccc(NC(=S)NC(=O)c2cccnc2)c1,9.23%
11,CC(=O)Nc1ccc(C(=O)OCC(=O)NCc2ccccc2)cc1,11.3%
12,O=[N+]([O-])c1cc(F)c(N2CCOCC2)cc1N1CCCCC1,-0.9%
13,CCn1c(=O)cc(C(F)(F)F)[nH]c1=S,18.6%
14,Cc1cc(C)c2c(=O)[nH]c(SCC(=O)Nc3ccccc3)nc2n1,9.87%
15,O=C(c1ccccc1)c1cc2c(cc1[N+](=O)[O-])OCCO2,9.76%
16,CC(=O)C1=C(O)C(=O)N(CCCN2CCOCC2)C1c1ccccc1[N+](=O)[O-] (stereo not drawn),10.2%
17,COc1cccc(Nc2nc(-c3sc(C)nc3C)cs2)c1,15.6%
18,COc1ccc(NC(=S)Nc2cc(C)ccn2)c(OC)c1,4.77%
19,COc1cc(/C=C(\NC(C)=O)C(=O)N2CCCCC2)ccc1OC(C)=O,4.85%

row,SMILES,"hERG current change (%, negative = inhibition) at 1uM"
1,Cc1cc(C(=O)CSc2n[nH]c(N)n2)c(C)n1C1CC1,1.71%
2,COc1ccc(N=NC2=C(O)CC(C)(C)CC2=O)c(OC)c1,7.85%
3,CCCCNS(=O)(=O)c1ccc2nc(-c3cccnc3)cc(C(=O)NC3CC3)c2c1,5.47%
4,CC(C)CNC(=O)c1coc(=O)c(Br)c1,11.7%
5,CCOC(=O)C1(Cc2cccc(Cl)c2)CCCN(C(=O)c2cccnc2)C1 (stereo not drawn),4.97%
6,O=C(CSc1nnc(COc2ccccc2)n1Cc1ccco1)Nc1ccc2c(c1)OCCO2,16.5%
7,COc1ccc(-n2c(O)c(C(C)=NCC3CCCO3)c(=O)[nH]c2=O)cc1 (stereo not drawn),12.1%
8,COCCCNC(=O)c1ccc(CS(=O)(=O)c2ccccc2OC)o1,10.9%
9,COc1ccc(S(=O)(=O)N(CC(=O)NCc2ccco2)C2CCCCC2)cc1OC,-11.4%
10,Cc1cc2n(n1)C(c1ccc(O)cc1)Nc1ccccc1-2 (stereo not drawn),1.16%
11,COc1ccc(NC(=O)CSc2nnc(-c3ccccc3C)n2N)cc1OC,-10.5%
12,COc1ccc(OCC(=O)Nc2ccccc2OC)cc1,5.65%
13,COc1cc(C=O)ccc1OCCOCCOc1c(C)cc(Cl)cc1Cl,5.73%
14,CCC(=O)c1cc2c(cc1NC(=O)c1ccccc1)OCCO2,15.2%
15,COc1ccc(/C=C(/NC(=O)c2cccs2)C(=O)Nc2ccc(C)cc2)cc1OC,9.65%
16,CCC(Sc1nc(N)cc(=O)[nH]1)C(=O)Nc1cc(C)on1 (stereo not drawn),13.9%
17,O=c1c(-c2ccc3c(c2)OCCO3)coc2cc(OC3OC(CO)C(O)C(O)C3O)ccc12 (stereo not drawn),8.54%
18,CCCn1c(C)cc(C(=O)COc2ccc(S(=O)(=O)N(CC)CC)cc2[N+](=O)[O-])c1C,-4.85%
19,CCC(C)[C@H]1CNCCN1CCC12CC3CC(CC(C3)C1)C2 (stereo partly drawn),14.8%

row,SMILES,"hERG current change (%, negative = inhibition) at 1uM"
1,CCN1CCCC1CNC(=O)c1ccccc1Cl (stereo not drawn),-5.07%
2,c1ccc(Oc2cccc(OCCCCN3CCCC3)c2)cc1,-39.8%
3,CCOC(=O)C(C)Oc1cccc2c(=O)n(CC(=O)NCCc3ccc(OC)c(OC)c3)ccc12 (stereo not drawn),2.81%
4,CC1Cc2nc(SCC(=O)Nc3nccs3)n(Cc3ccccc3)c(=O)c2S1 (stereo not drawn),3.53%
5,Cc1ccccc1-n1c(O)c(C=NCCN2CCOCC2)c(=O)[nH]c1=O,7.05%
6,CCOc1ccc(/C=C2\SC(=S)N(C)C2=O)cc1OC,12.1%
7,COc1ccc(C(=O)N2CCC(C(=O)Nc3ccc4c(c3)OCO4)CC2)cc1,-59%
8,CC1(NC(=S)N(CCO)CCO)CCS(=O)(=O)C1 (stereo not drawn),11%
9,COc1ccc(-c2cc(C(=O)Nc3cc(C)on3)no2)cc1,17.3%
10,Cc1cccc(OCCNC(=O)CCc2ccccc2)c1,20%
11,COc1ccc(C2c3sc(=O)[nH]c3SCC2C(N)=O)cc1 (stereo not drawn),9.91%
12,COc1ccc(N2CCN(CC(=O)c3ccc(Cl)cc3)CC2)cc1,9.75%
13,COc1ccc(N2CCN(c3ncnc4c3[nH]c3ccccc34)CC2)cc1,13.3%
14,COc1ccc(C[C@H]2CN3C(=NC[C@H]3C)N2CCNC(=O)c2ccc(C)c(Br)c2)cc1,-70.9%
15,COc1ccc(C=Nc2ccc3[nH]ncc3c2)c(O)c1,20.6%
16,COc1cccc(C2c3[nH]c4ccccc4c3C[C@H]3C(=O)N(c4ccccc4C(=O)N4CCC[C@H]4C(=O)O)C(=O)N23)c1 (stereo partly drawn),11.8%
17,CCN(CC)c1ccc2c(cc1=O)[C@@H](NC)CCc1cc(OC)c(OC)c(OC)c1-2,10.7%
18,COc1ccc(C(=O)COC(=O)C(CCCCN2C(=O)C3C4C=CC(C4)C3C2=O)N2C(=O)C3C4C=CC(C4)C3C2=O)cc1 (stereo not drawn),-17.5%
19,Cc1cc(C)n2c(SCC(=O)N3CCN(S(=O)(=O)c4ccc(Cl)cc4)CC3)nnc2n1,11.7%
